# In PMC4336329 (PLoS ONE, 2015):
# In all, about 310,000 compounds went through this assay and about 2,200 (0.71%) showed an effect of 50% or more. Effects have a minus sign here. The list shows a part of the results.
# Target: human ether-à-go-go-related gene (hERG) potassium channel (human, UniProt Q12809)
# Assay: primary screen, population patch clamp on CHO cells stably expressing hERG
# Sequence of human ether-à-go-go-related gene (hERG) potassium channel (Q12809 whole entry, looked up): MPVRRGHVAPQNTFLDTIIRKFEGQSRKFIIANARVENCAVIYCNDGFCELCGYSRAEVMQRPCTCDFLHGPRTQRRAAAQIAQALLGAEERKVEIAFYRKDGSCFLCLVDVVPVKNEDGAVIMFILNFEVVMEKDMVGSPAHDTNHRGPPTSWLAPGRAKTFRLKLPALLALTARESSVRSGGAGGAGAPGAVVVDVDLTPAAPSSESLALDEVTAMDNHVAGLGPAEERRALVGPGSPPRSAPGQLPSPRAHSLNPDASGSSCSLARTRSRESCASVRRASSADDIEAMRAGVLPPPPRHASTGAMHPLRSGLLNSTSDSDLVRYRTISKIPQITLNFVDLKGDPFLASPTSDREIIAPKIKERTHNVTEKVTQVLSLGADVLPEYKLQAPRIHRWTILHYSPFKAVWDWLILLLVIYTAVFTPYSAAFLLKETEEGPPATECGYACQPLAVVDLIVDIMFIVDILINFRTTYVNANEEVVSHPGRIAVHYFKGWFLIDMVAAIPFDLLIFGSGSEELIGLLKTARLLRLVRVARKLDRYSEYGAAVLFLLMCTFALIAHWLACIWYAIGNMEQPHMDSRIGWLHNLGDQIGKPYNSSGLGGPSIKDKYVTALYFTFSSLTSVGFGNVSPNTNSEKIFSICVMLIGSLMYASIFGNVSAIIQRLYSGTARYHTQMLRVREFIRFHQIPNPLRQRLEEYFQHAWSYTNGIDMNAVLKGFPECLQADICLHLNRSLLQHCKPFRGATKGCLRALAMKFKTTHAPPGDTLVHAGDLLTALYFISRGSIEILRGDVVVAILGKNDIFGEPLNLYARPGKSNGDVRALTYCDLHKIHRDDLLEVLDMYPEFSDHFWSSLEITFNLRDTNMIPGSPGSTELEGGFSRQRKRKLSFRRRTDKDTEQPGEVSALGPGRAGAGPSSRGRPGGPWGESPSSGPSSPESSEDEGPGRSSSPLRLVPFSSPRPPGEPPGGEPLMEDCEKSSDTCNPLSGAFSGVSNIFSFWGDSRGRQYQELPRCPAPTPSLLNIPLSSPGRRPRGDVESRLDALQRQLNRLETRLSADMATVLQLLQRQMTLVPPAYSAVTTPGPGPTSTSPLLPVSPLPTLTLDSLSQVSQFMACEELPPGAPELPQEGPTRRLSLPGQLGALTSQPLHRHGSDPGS
row,SMILES,"hERG current change (%, negative = inhibition) at 1uM"
1,CCc1noc(C)c1C(=O)NCCc1ccccc1,4.84%
2,COc1cccc(NC(=O)CN2C(=O)CSc3ccc(S(=O)(=O)N4CCOCC4)cc32)c1,10.6%
3,CCOC(=O)c1cc(S(=O)(=O)NCc2ccc3c(c2)OCO3)cn1C,15.9%
4,CCN(CC)S(=O)(=O)c1ccc(/C=C/C(=O)OCC(=O)N(C(C)C)C(C)C)cc1,10.3%
5,CN(C)CCNC(=O)c1cccn(Cc2cccc(C(F)(F)F)c2)c1=O,3.81%
6,CC(C)OC(=O)CC(NC(=O)OC(C)(C)C)c1ccccc1 (stereo not shown),16.5%
7,COC(=O)C1=CN(CCOC23CC4CC(CC(C4)C2)C3)C=C(C(=O)OC)C1c1ccsc1,10.8%
8,CCc1nnc(NC(=O)c2ccc(S(=O)(=O)N(CCOC)CCOC)cc2)s1,18.2%
9,CCc1ccc(NC(=O)Cn2c(=O)n(CCC(=O)NC3CCN(Cc4ccccc4)CC3)c(=O)c3ccccc32)cc1,8.47%
10,CC1CCN(C(=O)CCNS(=O)(=O)c2ccc(Cl)cc2)CC1,5.65%
11,COc1cc(SC)ccc1C(=O)NCCOc1ccc(F)cc1,8.25%
12,COc1ccccc1NC(=O)C(C)Sc1nc2ccccc2c(=O)n1CC1CCCO1 (stereo not shown),-4.34%
13,CC(C)c1ccc(OCC(=O)NCc2ccco2)cc1,8.06%
14,Nc1nc(-c2ccc(Cl)cc2)cc(C(F)(F)F)n1,8.68%
15,COc1ccccc1C(=O)NCCC(=O)NCCCSc1ccccc1,2.39%
16,Cc1ccc(S(=O)(=O)N2CCN(C(=O)N3CCOCC3)CC2)cc1C,5.1%
17,S=C1NC2CCCCC2N1 (stereo not shown),16.5%
18,CCOC(=O)C1C(=O)CC(C)(O)C(C(=O)OCC)C1c1ccc(N(CC)CC)cc1 (stereo not shown),13.3%
19,Cc1cc(N=Nc2ccccc2)c(NCC(O)C(O)C(O)CO)cc1C (stereo not shown),7.55%
20,N/C(Cc1ccc([N+](=O)[O-])cc1)=N\OC(=O)Cc1ccccc1,-6.85%
21,Cc1ccc(C2CC(c3ccc(Br)cc3)=NN2C(=O)CSC2=NN3CCCC(=O)N=C3S2)cc1 (stereo not shown),15.8%
22,COc1ccc2c(CC(=O)Nc3ccc(N4CCOCC4)cc3)coc2c1,8.67%

row,SMILES,"hERG current change (%, negative = inhibition) at 1uM"
1,Cc1cccc(NC(=O)CSc2nnc([C@@H](N)Cc3c[nH]c4ccccc34)o2)c1C.Cl,1.52%
2,COc1ccccc1N(Cc1cc(=O)[nH]c2ccccc12)C(C)=O,13.8%
3,CS(=O)(=O)N1CCC(c2noc(-c3ccc(C(F)(F)F)cc3)n2)CC1,6.26%
4,Cc1ccc(NC(=O)NNC(=O)c2snnc2C)cc1,3.35%
5,CCCCC1(Cc2cccc([N+](=O)[O-])c2)C(=O)N(c2ccccc2)N(c2ccccc2)C1=O,13.7%
6,CCOc1ccccc1N1CCN(C(=O)c2ccccc2)CC1,12.6%
7,CC(=O)N1SC(N)=NC1c1ccccc1 (stereo not shown),0.475%
8,O=C(COc1ccc(Cl)cc1Cl)Nc1ccc(CN2CCOCC2)cc1,10.8%
9,CC(=O)Cn1cnc2c(cnn2-c2ccc(C)c(C)c2)c1=O,7.47%
10,CCc1ccc(S(=O)(=O)Nc2cc3c(cc2N2CCOCC2)n(C)c(=O)c(=O)n3C)cc1,0.298%
11,O=C(CC1S/C(=N/N=C/c2cccs2)NC1=O)Nc1ccc(Cl)c(Cl)c1 (stereo not shown),11.9%
12,CN(CCN1CCOCC1)Cc1nc(-c2ccccc2)no1,2.84%
13,CC(=O)NC(=S)Nc1ccccc1F,12.4%
14,CCOc1ccc(S(=O)(=O)N2CCCCC2)cc1NC(=O)Cc1cccs1,9.9%
15,CCN(CC)c1ccc(NC(=O)CN2C(=O)NC3(CCc4ccccc43)C2=O)cc1 (stereo not shown),4.96%
16,Cc1ccc(CN2CCN(C/C(Cl)=C/c3ccccc3)CC2CCO)o1 (stereo not shown),7.23%
17,NNC(=S)NCc1ccco1,12.5%
18,Cc1ccc(/C=C2\SC(=S)N(CCC(=O)NNC(=O)c3ccccc3O)C2=O)cc1,7.29%
19,CC(C)[C@H](NC(=O)[C@H](Cc1ccccc1)n1c(=O)[nH]c2ccccc2c1=O)C(=O)N1CCC[C@@H]1C(=O)O,9.63%
20,COc1ccc(/C=C/c2nnc(NC(=O)CSc3ccc(Cl)cc3)s2)cc1,2.18%
21,Cc1cc(C)nc(N(C#N)Cc2ccc(Br)cc2)n1,20.7%
22,O=C1N/C(=N\N=C\c2ccco2)SC1Cc1ccccc1[N+](=O)[O-] (stereo not shown),7.2%

row,SMILES,"hERG current change (%, negative = inhibition) at 1uM"
1,Cc1ccccc1NC(=O)NCC1CCN(Cc2cccc(Cl)c2)CC1,-20.1%
2,Cc1ccc(C(C(=O)NC(C)(C)C)N(CC2CCCO2)C(=O)c2csnn2)cc1 (stereo not shown),-1.23%
3,N#Cc1ccc(N2Cc3ccccc3/C2=N/C(=O)Nc2ccc(Cl)cc2)cc1,1.36%
4,c1ccc(OCCCn2ccnc2)cc1,16.4%
5,CCCCOc1ccc(N(CC(=O)NC(C)C)C(=O)CCC(=O)Nc2ccccn2)cc1,17.1%
6,Cc1ccc(C(=O)Nc2ccc3c(c2)C(=O)N(C)C3=O)c(C)c1,7.33%
7,CCCN1CCN(S(=O)(=O)c2ccc3c(c2)NC(=O)C(C)C(=O)N3)CC1 (stereo not shown),9.95%
8,CC(NS(=O)(=O)/C=C/c1ccccc1)C(=O)O (stereo not shown),12.5%
9,O=C(NC(=S)Nc1ccccc1N1CCCC1)c1ccccc1[N+](=O)[O-],15.7%
10,N#CC(c1ccc(Cl)cc1)c1ccc(Cl)nn1 (stereo not shown),10.9%
11,COc1c(C)cc(Br)cc1C(=O)Nc1ccc(C)cc1[N+](=O)[O-],24.9%
12,Cc1ccccc1NC(=O)c1ccc(S(=O)(=O)C(F)F)cc1,-0.555%
13,COc1ccc(CC(=O)N2CCc3cc(OC)c(OC)cc3C2)cc1,-10.1%
14,COc1ccc(C(=O)N2CC=C(c3ccccc3)CC2)cc1S(=O)(=O)N1CCOCC1,5.5%
15,Cc1ccc(-c2[nH]nc3c2C(c2cccnc2)C(C#N)=C(N)O3)cc1 (stereo not shown),9.23%
16,COc1ccc(CC(=O)Nc2ccccc2N2CCCC2)cc1OC,4.24%
17,CCCc1nnc(NC(=O)CCC(=O)N2CCC(Cc3ccccc3)CC2)s1,2.63%
18,Cc1ccc2c(CN3CCN(CCO)CC3)cc(=O)oc2c1,-52.1%
19,CCc1cc2c(NCCC(=O)O)ncnc2s1,8.78%
20,COc1cc2c(cc1OC)-c1nncn1C(C)(C)C2,5.38%
21,COc1cc(OC)c(C(=O)O/N=C(\N)c2ccccn2)cc1OC,14.7%
22,CCOC(=O)c1ccc(-n2ccnc2)c(NC(=O)c2ccc(Cl)cc2)c1,-44.6%

row,SMILES,"hERG current change (%, negative = inhibition) at 1uM"
1,COc1cc(/C=C/C(=O)OCC(=O)N(C)C2CCS(=O)(=O)C2)ccc1OC(F)F (stereo not shown),7.09%
2,Cc1cccnc1NC(=O)Cn1nc(-c2ccccc2)oc1=S,4.63%
3,CCN(CC)S(=O)(=O)c1ccc2c(c1)nc(SCC(=O)N1CCCCCC1)n2-c1ccc(OC)cc1,11.9%
4,COC(=O)C(NC(C)=O)(Nc1ccccc1)C(=O)OC,15.2%
5,CC(C)(C)NC(=O)NC(=O)CN1C(=O)NC(C)(c2ccccc2)C1=O (stereo not shown),14.3%
6,CCC(N)C12CC3CC(CC(O)(C3)C1)C2.Cl (stereo not shown),7.25%
7,CCc1ccc2nc3sc(C(=O)N4CCc5ccccc54)c(N)c3cc2c1,7.82%
8,Cc1cc(CN(C)C(=O)c2ccc(OC3CCN(S(=O)(=O)N(C)C)CC3)cc2)n[nH]1,5.84%
9,O=C(NNc1nc2ccccc2s1)Nc1ccc(Cl)c(Cl)c1,36.3%
10,Cc1ccc(C(=O)NC(C)C2CC3CCC2C3)c(C)c1 (stereo not shown),12%
11,O=C(COc1ccccc1)NC(NC(=S)Nc1ccccc1C(=O)O)C(Cl)(Cl)Cl (stereo not shown),12.1%
12,Cc1ccccc1C(=O)Nc1ccc2c(c1)nc(CCNC(=O)c1ccco1)n2C,1.04%
13,CCC(C)Nc1nc2c(c(=O)[nH]c(=O)n2C)n1CCCc1ccccc1 (stereo not shown),7.59%
14,C=CCn1c(O)c(N=NC(=O)OCC)c2ccccc21,8.98%
15,COc1ccc(N(C(=O)c2snc(C(N)=O)c2N)C(C(=O)NC2CCCCC2)c2ccc(F)cc2)c(OC)c1 (stereo not shown),4.02%
16,CC1(c2ccc([N+](=O)[O-])cc2)NC(=O)N(CC(=O)c2ccc3c(c2)OCO3)C1=O (stereo not shown),2.7%
17,CCn1c2ccccc2c2cc(/C=N/NC(=O)c3ccc(O)cc3)ccc21,-0.487%
18,Cc1ccccc1C(=O)NC(CC(C)C)C(=O)NN1C(=O)c2ccccc2C1=O (stereo not shown),16.6%
19,CCOc1ccc(NC(=O)CCc2nnc3ccc(N4CCN(C)CC4)nn23)cc1,14.8%
20,COC(=O)COc1ccc(S(=O)(=O)N2CCOCC2)cc1C,0.607%
21,Cc1ccc(CNC(=O)CN2CCCC(C)C2)cc1 (stereo not shown),-0.491%
22,O=C(COC(=O)[C@H](Cc1ccccc1)NC(=O)c1cccs1)Nc1ccccc1C(F)(F)F,5.58%
